Where “and” joins values, the source holds several entries; their conditions need not be identical. Identical values can stand only once.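 Results reflect a 48-hour exposure of cells in 96-well plates to compound at five concentrations. Abbreviation: GI50, concentration required for 50% inhibition of growth.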 Calls of active or inactive are those of the source. Cut-off read from the data, not from the text of the source: active = GI50 up to about 1.1 µM and inactive = higher.
The molecules below were run on NCI-H322M (assay: inhibition of tumour cell growth, NCI panel, 48 h).

Row | Structure (SMILES) | GI50
1 | COc1ccc2c(c1)CCCc1c-2nc2ccccc2c1N | inactive: 6.15 µM
2 | [O-]c1c2c(nn1-c1ccccc1)c1ccccc1c[n+]2Cc1ccccc1 | inactive: > 100 µM
3 | CCCCCCCCCCCCCCCCOCC(O)CO (stereo unspecified) | inactive: 20.9 µM
4 | c1ccc2c(c1)[nH]c1c3ccccc3sc21 | inactive: > 100 µM
5 | C=CC(=O)N1C/C(=C\c2ccc(OC)cc2)C(=O)/C(=C/c2ccc(OC)cc2)C1 | inactive: 4.32 µM
6 | NNC(=O)N/N=C1/C(=O)N(c2ccc(Cl)c(Cl)c2)C(=O)C(=O)C1c1nc2ccccc2o1 (stereo unspecified) | inactive: > 100 µM
7 | CC12CCCCC1(C)C2Sc1ccccc1 (stereo unspecified) | inactive: > 100 µM
8 | COC1CCC(O)C(/C=C/[N+](=O)[O-])C1 (stereo unspecified) | inactive: 10.9 µM
9 | Cc1cc(C)nc(NS(=O)(=O)c2ccc(Nc3c4ccccc4nc4c(C(=O)Nc5ccc(S(=O)(=O)Nc6cc(C)on6)cc5)cccc34)cc2)n1 | inactive: 23.7 µM
10 | CN1C(=O)C(=O)N2c3ccc(Cl)cc3C3(c4ccccc4)N=CC12O3 (stereo unspecified) | inactive: 12.8 µM
11 | CCOc1ccc(C2=C(Cl)c3cc(OC)c(OC)cc3C2Cl)cc1 (stereo unspecified) | inactive: 52.7 µM
12 | CCOC(=O)/C(C#N)=C/c1ccnc2ccccc12 | inactive: 70.6 µM
13 | Cc1cc2c(cc1C)[n+]([O-])c(C#N)c(Cl)[n+]2[O-] | inactive: 15.6 µM
14 | CCOC(=O)/C(=C\c1ccc(O)c(OC)c1)C(=O)c1ccccc1 | inactive: 22.5 µM
15 | CCC(C#N)N(Cc1cccc(CN(C(C)=O)C(C#N)CC)c1)C(C)=O (stereo unspecified) | inactive: > 100 µM
16 | CC1OC(OC2C(CO)OC(O[C@H]3CC[C@@]4(C)C(=CC[C@H]5[C@@H]6C[C@@H]7O[C@](O)(CC[C@H](CO)COC8OC(CO)C(O)C(O)C8O)[C@@H](C)[C@@H]7[C@@]6(C)CC[C@@H]54)C3)C(OC3OC(C)C(O)C(O)C3O)C2O)C(O)C(O)C1O (stereo partly specified) | inactive: > 100 µM
17 | Cc1[nH]c(=O)nc(NCCNCCO)c1C(=O)Nc1c2ccccc2nc2ccccc12 | inactive: > 100 µM
18 | CNC(=O)CCCN(C)C(=O)CCCCC(=O)N(C)C | inactive: > 53.8 µM
19 | CCN(CCCN(CC)C(=O)Nc1ccccc1)C(=O)Nc1ccccc1 | inactive: > 100 µM
20 | O=c1cccc(Cl)[nH]1 | inactive: > 100 µM
21 | COc1ccc(C(=O)Oc2c(C#N)sc3c2c(=O)n(-c2ccccc2)c(=S)n3-c2ccccc2)cc1 | inactive: 27.9 µM
22 | NC(=O)N/N=C1/CCC(O)CC1CC(=O)O (stereo unspecified) | inactive: > 100 µM
23 | C/C(=C\c1ccccc1)C(=O)NCc1ccc(C(=O)NCCc2ccccc2)cc1 | inactive: > 100 µM

Row | Structure (SMILES) | GI50
24 | O=C1SC(c2ccc(Cl)cc2)(c2ccc(Cl)cc2)c2ccccc21 | inactive: > 100 µM
25 | N#Cc1nc(COCCOCc2ccccc2)oc1N | inactive: > 100 µM
26 | C[C@@]12c3c4ccc(C=O)c3Oc3ccc(C=O)c(c31)Oc1c(C=O)ccc(c12)O4 | inactive: > 100 µM
27 | CC1=C(C(=O)Nc2ccc([N+](=O)[O-])cc2)C(c2ccccc2O)C(C(=O)Nc2ccc([N+](=O)[O-])cc2)=C(C)N1 | inactive: 25.5 µM
28 | CC(C)CC1C(=O)NCCC(NC(=O)C(Cc2ccc(OC(C)(C)C)cc2)NC(=O)OC(C)(C)C)C(=O)NC(Cc2ccccc2)C(=O)NC(Cc2ccccc2)NC1=O (stereo unspecified) | inactive: 4.89 µM
29 | COc1cccc2c1C(=O)c1c(O)c3c(c(O)c1C2=O)C[C@@](O)(/C(C)=N/NC(=O)c1ccc(Cl)c(Cl)c1)C[C@@H]3OC1CC(N)C(O)C(C)O1 (stereo partly specified) | active: 0.451 µM
30 | O=S(=O)(N/N=C/c1ccc(/C=N/NS(=O)(=O)c2ccccc2)cc1)c1ccccc1 | inactive: 65.6 µM
31 | O=C(O)c1ccccc1/C=N\N=C1NCCCCN1 | inactive: > 100 µM
32 | C/C(=N/NC(=S)Nc1ccccc1C)c1ccccn1 | active: < 0.01 µM
33 | Nc1ncnc(NC2C=C(CO)C(O)C2O)c1[N+](=O)[O-] (stereo unspecified) | inactive: > 100 µM
34 | COc1cc2c(c(C)c1O)[C@H]1COc3ccccc3[C@H]1O2 | inactive: 30.8 µM
35 | COC(=O)C1(F)C(=O)NC(=O)NC1O (stereo unspecified) | inactive: > 100 µM
36 | O=C(CCC1OCCO1)Nc1cc(NCc2ccccc2)ccc1OCc1ccccc1 | inactive: 34.1 µM
37 | O=Cc1cn(C(=O)c2ccccc2)c2ccccc12 | inactive: > 100 µM
38 | CC(C)CNC(=O)CCc1cccc2c1oc1c(CCN)cccc12 | inactive: 18.7 µM
39 | N=C(N)NS(=O)(=O)c1ccc(Nc2c3ccccc3nc3c(C(=O)NCCO)cccc23)cc1 | active: 0.17 µM
40 | COCOc1ccc(C2(O)Oc3cc(OCOC)ccc3C2C)c(O)c1 (stereo unspecified) | inactive: 17.5 µM
41 | O=C1C(NCCc2ccc(O)c(O)c2)=CC(=O)c2ncccc21 | inactive: 16.4 µM
42 | O=C1c2cc([N+](=O)[O-])sc2C(=O)c2ccsc21 | inactive: 1.65 µM
43 | CC(=O)NC(=O)/N=C1\NCCC(=O)N1CCc1c[nH]c2ccccc12 | inactive: > 100 µM
44 | COc1cccc(/C=C/C2=NN(c3cccc(S(=O)(=O)O)c3)C3(C2)SCC(=O)N3c2nc3ccccc3s2)c1 (stereo unspecified) | inactive: > 100 µM
45 | Cc1[nH]c2ccccc2c1C1Cc2ccccc2N1C(=O)/C(Cl)=C/c1ccccc1 (stereo unspecified) | inactive: > 100 µM
46 | CC(C)(C)[Si](C)(C)OCC1OC(n2ccc(=O)[nH]c2=O)C(O[Si](C)(C)C(C)(C)C)/C1=N/O (stereo unspecified) | inactive: 5.14 µM

Row | Structure (SMILES) | GI50
47 | O=C(O)CCC(NC(=O)c1ccc(CNc2nc3ccccc3nc2C(=O)O)cc1)C(=O)O (stereo unspecified) | inactive: > 100 µM
48 | N#CCCN(CCC#N)c1ccc(/C=C2\SC(=S)NC2=O)cc1 | inactive: > 100 µM
49 | Cc1cc(N(CCOS(C)(=O)=O)CCOS(C)(=O)=O)ccc1/C=N/c1ccc(-c2csc(-c3ccc(Br)cc3)n2)cc1 | inactive: 7.71 µM
50 | COC1=CC(=O)C2C(C1=O)[C@@H]1c3ccccc3C[C@H]21 (stereo partly specified) | inactive: > 100 µM
51 | O=C(O)c1ccc(/C=N/N=C2c3ccccc3-c3ccccc32)cc1 | inactive: > 100 µM
52 | [O-][S+](Nc1ccccc1)c1ccc(-c2ccccc2)cc1 (stereo unspecified) | inactive: > 100 µM
53 | O=[N+]([O-])c1ccc2c(c1)c1nn2CCCCOc2nn(c3ccc([N+](=O)[O-])cc23)CCCCO1 | inactive: > 100 µM
54 | O=C1c2ccccc2C2(O)Nc3cc(O)ccc3C12O (stereo unspecified) | inactive: > 100 µM
55 | Cc1cccc(NC(=O)CCl)c1 | inactive: > 10 µM
56 | Cc1ccc(S(=O)(=O)n2ccc(-c3ccc4ccn(S(=O)(=O)c5ccc(C)cc5)c4c3)c2)cc1 | inactive: > 100 µM
57 | CCOC(=O)/C(C#N)=C/c1coc2cc(C)cc(C)c2c1=O | inactive: > 100 µM
58 | Cc1cccc(C(C)C)c1NC(=O)C(=O)C(C(=O)c1ccccc1F)C1OC(=O)c2ccccc21 (stereo unspecified) | inactive: 16.3 µM
59 | Clc1ccc(-c2nnc(-c3nn(-c4ccccc4)c4nc5ccccc5nc34)o2)cc1 | inactive: > 100 µM
60 | Nc1nc(SCCNC(=O)CCc2ccc(O)c(I)c2)nc2c1ncn2C1OC(CO)C(O)C1O (stereo unspecified) | inactive: > 100 µM
61 | O=C(Cc1csc2[n+]1C(=O)/C(=C/c1ccc(Cl)cc1)S2)Nc1ccccc1 | inactive: 21.7 µM
62 | CCOc1ccccc1N1C(=O)C(=O)C(c2nc3ccccc3s2)C(=O)C1=O | inactive: 67.9 µM
63 | C/C(=N\NS(=O)(=O)c1ccccc1)c1ccccc1 | inactive: > 100 µM
64 | Cc1nc(Cl)c2sc(=S)n(-c3ccc(F)cc3)c2n1 | inactive: 11.7 µM
65 | Cc1ccc(C2=Nc3ccccc3NC(=O)C2)cc1 | inactive: > 100 µM
66 | O=C1NC2(NC(=O)C1=O)Nc1ccccc1S2 | inactive: > 100 µM
67 | C=C1C[C@@H](O)[C@@H](Br)C(C)(C)[C@]12CCC(C)(Br)C(Cl)C2 (stereo partly specified) | inactive: > 50 µM
68 | Cc1cc2c(cc1Cl)SC(NNC1=NCCN1)=NS2(=O)=O | inactive: > 10 µM
69 | CC(C)(C)[Si](C)(C)OCC1OC(n2cnc3c(=O)[nH]cnc32)CC1O (stereo unspecified) | inactive: > 100 µM

Row | Structure (SMILES) | GI50
70 | CCOC(=O)/C(C#N)=C/N(CC)/N=C/c1ccccc1 | inactive: > 100 µM
71 | OCCNc1nc2c(N3CCCC3)nc(N3CCNCC3)nc2nc1NCc1ccccc1 | inactive: 12.6 µM
72 | CCOC(=O)CCC(NC(=O)c1ccc(OCc2nc3ccccc3n3cccc23)cc1)C(=O)OCC (stereo unspecified) | inactive: > 100 µM
73 | CC1(C)CC(=O)C(CC2C(=O)c3ccccc3C2=O)C(=O)C1C(=O)C(=O)Nc1cccc2ccc(O)cc12 (stereo unspecified) | inactive: > 100 µM
74 | Cc1ccc(-c2cc(=O)c3cc(C)c(C)c(C(=O)O)c3o2)cc1C | inactive: > 100 µM
75 | COc1ccc(C(O)c2ccccn2)cc1 (stereo unspecified) | inactive: > 100 µM
76 | Cc1cn(Cc2cn(CC3OC(n4cc(C)c(=O)[nH]c4=O)CC3O)nn2)c(=O)[nH]c1=O (stereo unspecified) | inactive: > 100 µM
77 | O=C1NC2OC(C(O)CO)C(O)C2O1 (stereo unspecified) | inactive: > 100 µM
78 | NCCN1C(=O)c2cc(Cl)c(Cl)cc2C1(O)c1ccc(Cl)cc1 (stereo unspecified) | inactive: 2.61 µM
79 | O=c1c2c(-c3ccccc3)onc2n(-c2ccccc2)c(=O)n1-c1ccccc1 | inactive: > 100 µM
80 | CCOC(=N)CC(=O)Nc1ccccc1CC | inactive: > 100 µM
81 | Cc1c(NC(=O)C(C)(C)Br)c(=O)oc2c(C)c3occc(=O)c3cc12 | inactive: 91 µM
82 | O=C(/C=C/c1ccc(O)cc1)c1ccc2c(c1)OCO2 | inactive: 28.4 µM
83 | O=C1c2ccccc2C(=O)c2sc(Nc3cccc(Cl)c3)nc21 | inactive: 2.25 µM
84 | c1ccc(/C(=N\Nc2nc3ccccc3s2)c2ccccn2)cc1 | inactive: 1.66 µM
85 | CCOC(=O)c1ccc(N[C@@H]2c3cc4c(cc3C(c3cc(OC)c(O)c(OC)c3)[C@H]3C(=O)OCC32)OCO4)cc1 (stereo partly specified) | inactive: 3.85 µM
86 | CCC12CC[C@H](C#N)N3CCc4c(n(c5ccccc45)C(=O)C1)C32 (stereo partly specified) | inactive: 17.8 µM
87 | CC1CC2OC(=O)CC2C[C@@H]1O[Si](C)(C)C(C)(C)C (stereo partly specified) | inactive: > 100 µM
88 | COc1cccc(-c2cc(O)c3cc(N(C)C)ccc3n2)c1 | active: 52.2 nM and active: 49.3 nM
89 | O=C1Cc2c([nH]c3ccc(Br)cc23)-c2cc(O)c(O)cc2N1 | inactive: > 100 µM
90 | C[n+]1c(-c2ccc(/C=N/Nc3ccnc(N/N=C/c4ccc(-c5cn6ccsc6[n+]5C)cc4)n3)cc2)cn2ccsc21 | inactive: 20.2 µM
91 | COc1cc2c(c(OC)c1OC)-c1ccc(SC)c(=O)cc1[C@@H](NCc1ccc(C#N)cc1)CC2 | active: 0.00405 µM
